Source: the supplement of paper PMC12632987
Whole data set: some 4,500 sequences, median “median log2 fold change of GCK-ALFA target abundance (FLAG IP / Myc IP barcode read proportion)” near 0.078, cut for the lowest 2% near -0.6. This is one part of the list.

B1: GBRAP_166_4884 (protein)
chain: MKEKLKEETKEFIKKLAEEAKGKSPEEVLELIIEVAEKIKEAKEAGLSEEDLLELIKYAVEEFSKIGWDPTLVAGIIINEADLSEELKEKVLDYIEELKK
B2: GBRAP_80_6858 (protein)
chain: AEEELEKALAELEKLLPEVAEDAKEIVELAKEMGVPYEDIAELMRALAELAKVDPELAAELIKELLKDLKEAKEEGDSENALALVRGYAGEALMEAEELE
B3: GBRAP_52_6026 (protein)
chain: MRAELEAAVREALALVRAGDLEAARALLEELVASLNDEELELLTEVVAALAAAAAPEDQEAVWTLTELAAEAMEEAGADEALADDLEARTAAALYEAEQR
B4: GBRAP_166_4936 (protein)
chain: SVEEALKRLKELIEEALEKMKTANAEEQTELWIEVGEALREAREAGVSLEELLEAVREFLKGVKELGLNIKIAAGIIINEADFTEEEIDKVWEIVDEILK
B5: GBRAP_128_3204 (protein)
chain: VSPEAVAALRALADEAAATKTDEALKAFADAVAAALKAGRLDLDSLEAIVSYLGSKLDEDDLVKAADALRAALADVGAEALATALGALGEVLMEKIEEEE
B6: GBRAP_128_3452 (protein)
chain: STEEKVKKAEELMNKIIESSDEEVPALAAELVDLIGESDDESAKAIAEVIIKKIPELSEEKLEILADVFVARRPELTPEKQEVLNEIAVAIGEEILEKEE
B7: GBRAP_80_6808 (protein)
chain: AEERLERALKEIEEIDPELAERVRRIVELARALGVSEETLAEFVEAVAKLAKIDVEKARELVEELEEDLLEEAARGDTARAEAVLRVYAGEFLLEVEELE
B8: GBRAP_128_3454 (protein)
chain: SVEEVREWTRATMEEVKEADLETARELFRELAARLTTLSLEEVEAAVEVIEEMLPELTPEKLDILAEVFREALPQFTPEKAALVADAASDALLLAEEKEE

The binders below were run against GABARAP, O95166 (assay: median log2 fold change of GCK-ALFA target abundance (FLAG IP / Myc IP barcode read proportion) (log2 ratio); each designed protein is fused to an ALFA-tag nanobody in HEK293 cells to bring the named protein to FLAG-tagged glucokinase (GCK); Myc marks an untargeted standard; higher = target protein stabilised (more abundant)). Conditions: target protein: 3xFLAG-MCP-GCK-ALFA reporter; HEK293 landing pad (RPLP).
GABARAP, O95166, sequence (O95166 whole entry, the tested form may be a part): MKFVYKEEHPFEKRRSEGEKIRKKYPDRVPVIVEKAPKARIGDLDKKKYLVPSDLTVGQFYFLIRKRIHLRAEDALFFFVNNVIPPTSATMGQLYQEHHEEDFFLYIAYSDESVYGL
How it was run: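 HEK293 landing-pad cells received a recombined binder library fused to the ALFA nanobody and were induced with 2 μg mL^−1 doxycycline, then transfected with a plasmid encoding a FLAG-tagged target and a Myc-tagged standard. Lysates were collected after 48 h for anti-FLAG and anti-Myc immunoprecipitation, and the circular RNA barcodes were reverse transcribed, amplified and sequenced. Target abundance for each binder is the median log2 ratio of FLAG to Myc barcode read proportions. Barcodes had to reach a proportion of at least 10^−7 in both replicates, each binder needed at least 3 barcodes per replicate, a pseudocount of 10^−6 was applied, and the two replicates were pooled.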

| Binder | median log2 fold change |
| --- | --- |
| B1 | 0.278 |
| B2 | -0.0923 |
| B3 | -0.261 |
| B4 | 0.335 |
| B5 | 0.241 |
| B6 | 0.274 |
| B7 | -0.444 |
| B8 | 0.24 |
